Hit rate of the full screen: of about 310,000 compounds, about 14,000 (4.5%) showed an effect of 50% or more. The effect is printed as a negative number. The list shows a part of the results.
Target: human ether-à-go-go-related gene (hERG) potassium channel (human, UniProt Q12809)
Experiment: primary screen, population patch clamp on CHO cells stably expressing hERG
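Note: peak tail current of the secondary pulse compared with the same well before compound.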

Chain of human ether-à-go-go-related gene (hERG) potassium channel (Q12809 whole entry, looked up): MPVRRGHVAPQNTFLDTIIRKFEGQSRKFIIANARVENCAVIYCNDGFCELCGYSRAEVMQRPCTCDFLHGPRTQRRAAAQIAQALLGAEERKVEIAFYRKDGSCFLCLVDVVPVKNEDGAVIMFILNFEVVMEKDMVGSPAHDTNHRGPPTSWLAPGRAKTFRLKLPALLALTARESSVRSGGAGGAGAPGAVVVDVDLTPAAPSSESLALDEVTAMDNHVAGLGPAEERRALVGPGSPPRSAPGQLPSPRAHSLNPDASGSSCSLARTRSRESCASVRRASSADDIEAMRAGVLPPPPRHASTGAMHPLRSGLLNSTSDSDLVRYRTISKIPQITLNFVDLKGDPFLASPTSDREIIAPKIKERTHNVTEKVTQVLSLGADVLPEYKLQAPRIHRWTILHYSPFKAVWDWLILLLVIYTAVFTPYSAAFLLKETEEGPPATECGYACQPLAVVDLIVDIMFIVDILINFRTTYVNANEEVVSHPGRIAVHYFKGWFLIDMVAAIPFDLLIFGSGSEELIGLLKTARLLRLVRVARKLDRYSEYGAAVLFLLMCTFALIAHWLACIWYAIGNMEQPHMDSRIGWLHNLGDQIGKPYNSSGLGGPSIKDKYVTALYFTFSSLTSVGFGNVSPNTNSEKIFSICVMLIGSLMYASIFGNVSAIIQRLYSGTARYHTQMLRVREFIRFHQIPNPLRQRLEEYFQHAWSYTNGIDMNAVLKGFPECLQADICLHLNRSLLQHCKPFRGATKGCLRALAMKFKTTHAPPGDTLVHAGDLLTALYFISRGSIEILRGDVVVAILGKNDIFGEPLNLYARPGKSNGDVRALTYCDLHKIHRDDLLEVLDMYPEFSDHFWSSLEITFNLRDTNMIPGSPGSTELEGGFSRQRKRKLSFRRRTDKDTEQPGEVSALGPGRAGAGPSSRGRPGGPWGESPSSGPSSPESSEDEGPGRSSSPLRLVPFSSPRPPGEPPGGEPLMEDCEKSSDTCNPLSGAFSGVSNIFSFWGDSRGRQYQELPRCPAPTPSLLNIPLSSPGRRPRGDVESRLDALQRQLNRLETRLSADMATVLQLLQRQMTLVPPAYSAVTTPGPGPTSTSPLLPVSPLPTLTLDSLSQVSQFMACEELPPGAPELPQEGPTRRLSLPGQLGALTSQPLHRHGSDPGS

| SMILES | hERG current change (%, negative = inhibition) at 10uM [%] |
| --- | --- |
| O=S(=O)(c1cccc(COc2ccc(Cl)cc2Cl)c1)N1CCOCC1 | 3.46 |
| O=C(NCC1CCCCC1)c1cc([N+](=O)[O-])ccc1N1CCOCC1 | -20.5 |
| O=S(=O)(c1ccc(Cl)cc1)N1CCCC1c1nc(-c2cccc(Cl)c2)no1 (centres unmarked) | 7.93 |
| Cc1cccc(NC(=O)c2nc[nH]c2C(=O)N[C@@H](Cc2ccccc2)C(=O)OCc2ccccc2)c1 | 16.2 |
| CCOc1ccc(/C=N/OCC(=O)Nc2cc(C)on2)cc1 | 12 |
| CN(C(=O)c1cc([N+](=O)[O-])ccc1N1CCCC1)C1CCCCC1 | 1.07 |
| NCCCC[C@H]1CNC(=S)N1CC1(c2ccccc2)CC1 | 12.2 |
| Cc1cc(C)n2nc(SCC(=O)Nc3ccc(O)cc3)nc2n1 | 6.96 |
| O=C(CSc1nc(C2CC2)nc2ccccc12)N1CCCCC1 | -27.7 |
| Cc1ccc(NC(=O)CSc2nnc(C)n2CC2CCCO2)cc1 (centres unmarked) | 0.753 |
| COc1cccc(NC(=O)CSc2nnc(CNC(=O)c3ccccc3)n2C)c1 | -6.02 |
| CCN1CCN(c2cc(C)c3cc(NC(=O)CCC(=O)N4CCN(c5ccccc5)CC4)ccc3n2)CC1 | 24.7 |
| O=S(=O)(Nc1ccccc1N1CCCCC1)c1ccc(F)cc1F | 10.7 |
| N#Cc1nc(-c2ccco2)oc1N1CCN(c2cccc(Cl)c2)CC1 | -16.1 |
| O=C(CNC(=O)c1ccco1)OCC(=O)c1cccc2ccccc12 | -2.33 |
| CCCn1c2c(c(O)c(C(=O)Nc3ncccc3O)c1=O)CCCC2 | 2.9 |
| CC(=O)c1ccc(S(=O)(=O)NCCCC(=O)NCCc2ccccn2)cc1 | 10 |
| CSCCC(N=Cc1c(O)n(-c2ccc(Br)cc2)c(=O)[nH]c1=O)C(=O)OC(C)(C)C (centres unmarked) | -12.4 |
| COc1ccc(C(=O)Nc2c(C)csc2C(=O)O)cc1 | 6.73 |
| Cc1cc(C)n(CC(=O)N2N=C(C(F)F)CC2(O)C(F)F)n1 (centres unmarked) | 7.85 |
| O=C(NCc1ccccc1)NC1CC2CCC(C1)N2Cc1ccco1 (centres unmarked) | -17.1 |
| CCNC(=O)Nc1ccc(OC)cc1OC | 25.9 |

| SMILES | hERG current change (%, negative = inhibition) at 10uM [%] |
| --- | --- |
| COc1cc(/C=N/Nc2ccccc2[N+](=O)[O-])ccc1OC(=O)c1ccccc1F | -3.09 |
| CCN(CC)CCNC(=O)c1cn(-c2ccccc2)nc1-c1cccs1.Cl | -69 |
| O=C(CSc1ccccc1)NC1CCCCCCC1 | -6.88 |
| Cc1ccc(N2CCN(C(=S)Nc3ccccc3)CC2)cc1 | 15.7 |
| CC(=O)Nc1cccc(OCCCNC(=O)c2ccc(C(C)(C)C)cc2)c1 | -14.1 |
| Cc1cccnc1NC(=S)Nc1ccc(Br)cc1Cl | 5.46 |
| COc1ccc(CCN(C)C(=O)CSc2nc3ncc(Cl)cc3[nH]2)cc1OC | -10.7 |
| Cc1cc2nc(-c3ccc4c(c3)CCC4)ccn2n1 | -2.72 |
| COc1cccc(CNC(=O)CCC(=O)n2ncc3cc(C)ccc32)c1OC | 3.67 |
| O=C(NC1(C(=O)NC2CCCCC2)CCCCC1)c1ccc2c(c1)OCO2 | 9.47 |
| O=C1C2C(c3ccccc3)C=CC(c3ccccc3)C2C(=O)N1c1ccccn1 (centres unmarked) | -3.56 |
| COCCNC(=O)C(=O)Nc1cc2c3c(c1)CCC(=O)N3CCC2 | 43.4 |
| CC(=O)N1CCc2cc(Br)cc(S(=O)(=O)NCCCN3CCC(C)CC3)c21 | -16.8 |
| Fc1ccc(Oc2ncccn2)c(F)c1 | 13.3 |
| Cc1ccc2c(NC(=S)NC(=O)c3ccccc3)cccc2n1 | 2.85 |
| CCCCCCCCCCCC(=O)O | 24.4 |
| CC1CCN(C(=O)c2ccc(CSc3nc4ccncc4n3Cc3ccc(F)cc3)cc2)CC1 | -46 |
| Cc1ccc(S(=O)(=O)c2c(N)n(NC(=O)c3ccco3)c3nc4ccccc4nc23)cc1 | -4.68 |
| O=Cc1ccc(N2CCCC2)c(F)c1 | -1.25 |
| O=C(CCc1nnc2ccc(NCc3ccc(F)cc3)nn12)N1CCC2(CC1)OCCO2 | -0.229 |
| CCCCCCn1c(C)nc2c(c1=O)c1nc3ccccc3nc1n2/N=C/c1ccco1 | -36.1 |
| COc1cccc(NC(=O)c2nn(-c3ccc(OC)cc3OC)c(=O)c3ccccc23)c1 | 13 |

Source: paper PMC4336329 (PLoS ONE, 2015)
